Data published in the supplement of paper PMC3334620.
In all, about 33,000 sequences were measured (“E-score (-0.5 to 0.5)”: median about -0.056, highest 2% from about 0.38 on). This is one part of the list.

Biological target: Stb4 (UniProt P50104)
Test: PBM E-score (8-mer binding enrichment) (E-score (-0.5 to 0.5)); higher = stronger / more preferred TF binding; most listed sequences are background and not binding sites
Settings: protein concentration: 200 nM; construct: GST-DNA-binding domain
How it was run: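 Each ungapped eight-base word and its reverse complement, pooled, received an E-score from the Universal PBM Analysis Suite. Underlying scans, normalised with masliner, recorded fluorescent anti-GST bound to GST-tagged yeast transcription factors. These were applied at about 100-200 nM to universal all-10-mer Agilent arrays double-stranded by primer extension.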

Sequence | PBM E-score
CAGCGGTC | -0.186
GATAAAGC | 0.0432
AAGCATGT | -0.0991
GTAGTCGA | -0.038
AGTACATG | -0.127
ACCTGACA | -0.17
GGGTGTAC | 0.0614
ATTACTGG | -0.194
ACTATGTG | -0.0584
CTGGTGTC | -0.068
AAGGAGCA | -0.118
CACAATCC | 0.044
CTCGACAG | -0.215
ACTCACGA | -0.256
ATTTTTAG | -0.0317
CCAAACTA | -0.113
GAGCTGCC | 0.0988
CGGAAAGA | 0.407
AACGAACT | -0.212
TCGTCGCA | -0.133
CCATAACC | -0.0552
GACACTGC | -0.136
AAATGTCG | 0.0675
AGCCAAAT | 0.00327
CCGTCTGC | 0.0943

Sequence | PBM E-score
ACAACGAG | -0.233
ATGCGGTA | 0.0724
TATTACAA | -0.0959
CTAGGGGA | -0.203
CAGTCACA | -0.242
AATCTCAT | -0.139
CGAATTCA | 0.195
CTGGATCA | -0.141
AAATGGCG | -0.0299
CCTACGTA | -0.169
CGGCAATA | 0.34
TAGAACTA | -0.154
AGCCAGGC | -0.28
ATGAGGCG | -0.0172
ATCGGTTG | 0.181
ACGATAGT | -0.262
CTGGGGGC | -0.214
AGCAATGA | -0.207
GGAGTTCA | 0.0991
TGATCACA | -0.108
AGCAACGG | 0.177
AATGAGGG | -0.121
GACAAAGC | 0.00913
CTTGCACA | -0.0761
CCCACGTC | -0.0653

Sequence | PBM E-score
CGCGGCAG | 0.179
ACTGTTTC | -0.0283
ACCTATCT | -0.274
AGCCCGAC | 0.0817
GATCGAGC | 0.0801
GACCCCTA | -0.347
CAGTTCCG | 0.364
AAATTTGG | -0.172
ATAAGCGC | -0.217
ATGAGTCC | 0.0307
AGAGCCAT | -0.184
GCCAGTCC | 0.0695
CTGCACTC | 0.0824
AGACCCCG | 0.215
AACCTATA | -0.0322
AGCTGGTC | -0.212
CGTCTAAG | -0.0829
CCAAGACG | -0.09
ACTGTCCA | -0.248
CTTGTCGA | -0.294
ACCTGGAT | -0.0324
TATCGATA | -0.0571
AGCCTAAG | -0.206
ACGCGTAT | -0.0638
GGAGTAGA | -0.0139

Sequence | PBM E-score
ATCGACAG | -0.0876
GTTGTCTA | -0.0662
CACACAGA | -0.106
CCTCGACC | -0.2
CTCAGCGA | -0.00367
AGCAAGCC | -0.0146
CCGGATGA | 0.366
AAGCGTGA | -0.0651
ATGAGGTC | -0.137
AGTGGTCA | 0.0336
CAAACGAA | -0.0891
CCACCCGG | 0.273
AACAAACT | -0.00836
ACTCAAAG | -0.0542
CGTCGAAC | -0.255
AGACAAAC | -0.219
CTAGTGGC | -0.312
AACAGGTA | -0.0983
AATAGGCC | -0.0701
ACATGCAG | -0.26
CTACCGAG | 0.381
CTTTAATA | 0.0204
TCCTGTCA | -0.0462
CTAGGAAG | -0.223
AAGTTCGC | -0.187

Sequence | PBM E-score
ACTGCCCC | -0.0742
GGAATGAA | 0.165
AAGTACAT | -0.0251
TCAGTAGA | -0.052
CTTTAGAC | -0.294
GTCTATTA | -0.00563
CACCCGTG | 0.186
CGTGGTTC | 0.0512
AATTCCCC | 0.168
GGTGCGAC | -0.0806
CAATCTAC | -0.0205
CTGAGTAC | -0.177
GCTCGGCA | 0.443
CGTCTAAA | -0.0166
CCGGCATA | 0.263
AGGCCTAG | -0.288
AGTTCAAA | 0.162
AACCCTAT | -0.172
CAGAATAA | -0.0851
ATAAATAG | -0.0646
CTGCAGAC | -0.237
GCATTATA | -0.134
GCTCAATA | -0.0858
CCAGATAC | -0.122
GTATGGAC | 0.0985

Sequence | PBM E-score
GCGCACGA | -0.0528
GGATATCA | 0.209
AAGGACCC | 0.0403
AAGACCCT | -0.17
ACGAGATA | -0.184
GAAAATCC | 0.187
AACAATGC | -0.136
TCTCCACA | -0.302
CACTGCGG | 0.0268
CAGAGGCC | -0.204
CGAACTCG | 0.268
AGGCGATG | -0.0991
GAGAGGAC | -0.00531
CCTCAGCA | -0.123
ACTCGCAG | -0.119
TTATAAAA | 0.0694
GAACTGTC | -0.0422
AACTCCCC | -0.00768
TCTACTCA | -0.12
CCTATTCA | -0.0251
CACTTGGC | -0.0731
CCGTAATC | 0.0976
CCGTCGTA | -0.0259
CCTTAGAG | -0.234
CAAAACTA | -0.0927

Sequence | PBM E-score
AATCCTCA | -0.264
AAGCTGCC | 0.0027
GGATCGAA | 0.214
CAACCGTA | -0.0391
AAATAGCG | -0.102
CGCTATCA | -0.0118
GACGCACC | -0.106
AACTCCCA | -0.104
ACACCTTG | -0.135
AGGCCTAA | -0.108
ATAATATG | -0.0706
CCCCTGTC | -0.252
CCGTTTTC | 0.19
ACCTTGTA | -0.053
GTCGGTGA | 0.0937
GATCCCTA | -0.0232
CACGAAAA | -0.0798
CTCCGCTA | -0.0461
AAGTCCGC | 0.0523
CGCCTGCC | -0.0366
GCTACCGA | 0.332
AGGTCCGG | 0.163
ACAGAACG | -0.11
ACGCTGCA | -0.139
CCGAGAAC | 0.414

Sequence | PBM E-score
AAGCTCAT | -0.164
GCTCTCAC | -0.151
CCTCACCC | 0.0962
AGGATCCA | -0.0863
AACCTCTT | 0.068
AACGCTAC | -0.0404
GCAAATCA | -0.158
ATATCGTC | -0.0532
TAACACAA | -0.0123
AGACAAGA | 0.106
CGGTAGAC | 0.205
AACGTCCT | -0.116
AATTGCGA | -0.127
AATATCAA | -0.0948
AGCTTGGA | -0.315
ACAGGTCC | -0.0369
GAAAGTTC | 0.101
GATCGAAA | 0.0885
GAAGATTC | 0.114
AAGAGTTC | -0.128
TCCTTCGA | -0.0707
ATAAGGTA | 0.0815
GCTGCCGA | 0.378
CCGCCTAA | 0.0083
GTACTCTA | -0.193

Sequence | PBM E-score
GAACACTC | 0.0957
CTTTCGCC | -0.0565
ACAACGCT | -0.279
AGTAGGTA | -0.153
CAATGTAC | -0.0745
GGATCAAC | 0.0775
GATGACTA | -0.0894
ATACTAGC | 0.00069
AACGTTAA | 0.123
ATTAGGAA | 0.00373
AGCGGACT | -0.152
GATTTCCC | 0.109
CGGCTAAC | 0.331
GATAGAAC | 0.0122
ATTGCTGA | -0.24
AGATCTTC | -0.0558
ATCCGGAC | 0.336
AAGAACGC | -0.0267
CTCGAGCC | 0.0289
ATTGGTTG | -0.166
ATAAAAAT | -0.0765
CTGTAATA | 0.0594
CCCGGGGA | 0.247
ATTTACAC | -0.0341
CCCCATTA | -0.358

Sequence | PBM E-score
GAATGTAC | 0.0294
CCGGCCAG | 0.161
CGGAGATC | 0.205
CAACTCTA | -0.00307
ACCTTATG | -0.213
GTCAATAA | 0.0146
TATGATGA | -0.0204
CGCTACAA | 0.032
AAGTAATG | 0.0876
CGGACGGC | 0.214
AATGCTAG | 0.0387
AGTTCGCC | 0.085
ATGTGGCA | -0.101
AAGCGATA | -0.28
CCGGGCCA | 0.18
GTAAAGCA | -0.144
ATAAATAC | 0.0693
CGAAACGA | -0.00013
AAGTTTTG | 0.0245
GCGGGCGA | 0.109
AGATCTAC | -0.179
ATAGATGC | -0.165
CAGTCGGA | 0.316
CTGAGTGC | -0.083
CTACTAAA | -0.112

Sequence | PBM E-score
CTTGGTTA | -0.139
GACCCGTA | 0.0406
AACTCCCG | 0.356
TTACTCAA | -0.00049
CATGCCAA | -0.257
ATGAAAGA | -0.0806
ACTCGGCC | 0.232
CTTCCCCC | -0.213
ATGCATAC | -0.194
AAATAATC | -0.101
ACGCGTTC | -0.00022
CGACTCCG | 0.211
TGGGCAAA | -0.168
AAAGCGCA | -0.0833
CTAAAATA | -0.119
GAGCCATC | -0.16
CCACGAAA | -0.181
CCCTCCCG | 0.277
ACTTGATA | -0.136
CTGCGCCC | -0.166
CGATTGCG | 0.136
CCTTTACC | 0.0566
AGCCATAG | -0.316
AGTGGTGA | -0.0529
CCGGACGC | 0.202

Sequence | PBM E-score
ACAAAACA | -0.105
ATGTAGTG | -0.175
GTTATAAA | -0.0264
CTCACAGA | -0.146
GTTAGTAA | -0.198
AAGACTTG | -0.135
AGTTGCAG | -0.148
ACGCGCGT | -0.0483
AAAGGGCT | -0.241
AGCCTCGG | 0.381
AGATGTCA | -0.0419
ACGTACAC | -0.174
TATTATAA | -0.07
AAGCTCCC | 0.0273
GGTTATGA | 0.141
CAGGCTCA | -0.176
GGTGATCA | -0.114
GGCTAAGA | 0.0718
AACCAGTT | -0.0414
AGCGCCGG | 0.24
AGACATTG | -0.154
ACGGAGTA | 0.136
TACTGAAA | 0.0265
GCCCCGAC | 0.203
CGTACACC | 0.085

Sequence | PBM E-score
CACCCGAC | 0.384
CTGGCGTC | -0.263
AAGCGCCA | -0.199
CCTTTTCA | -0.197
ATTCCCTA | -0.0343
AGTCCAAA | -0.0554
ATTGTTGC | -0.213
ACTTCAAT | 0.00032
CCAAAACG | -0.121
CCACAGGA | -0.0975
AAGAGCCC | 0.0256
TACACCAA | -0.076
AATAGTCT | -0.236
AGGCCACT | -0.141
TCGCAGAA | -0.334
ACAGTTTC | 0.0561
ATGTCGGC | 0.138
TACCAAGA | 0.0915
AACTGCCC | -0.0962
CCCCAGCA | -0.16
GCAGTTGA | -0.136
ATATCCTA | -0.0944
ACGTGCGG | 0.0609
CTCTTCTA | -0.188
GGATTTAC | 0.114

Sequence | PBM E-score
CCCCACGG | 0.131
GAATCTCA | -0.0758
CTCAGATC | -0.103
GAAGGTAA | 0.1
AGCTACTC | -0.104
GCTACATA | -0.0574
CCACGACC | -0.272
CGGTCATC | 0.0638
AGCCACTA | -0.18
AAAATGGG | -0.141
CACATTAC | -0.045
AGCTCGGC | 0.412
CACTATAG | -0.239
GAGAAGGA | -0.0876
AGCCTGAT | -0.256
ATACGCAC | 0.0268
ATCGTCCA | -0.0555
GGCGTCGA | -0.115
CCGACCTC | 0.311
